# The whole screen tested about 350,000 compounds, of which about 31,000 (8.9%) were called active. Inconclusive means that the source gave no clear call. Such entries were picked first, then a sample of the others. Calls follow the shape of the dose curve; as a rule, active = well fitted inhibition curve with a large enough effect; inconclusive = small, poorly fitted or top-dose-only effect; inactive = no such curve, though single readings can be large or run the other way. Potencies of inconclusive entries are doubtful fits and often do not repeat.
# Target: Histone-lysine N-methyltransferase EHMT2 (Homo sapiens) (UniProt Q96KQ7)
# Sequence of UniProt Q96KQ7 (Q96KQ7 whole entry, looked up): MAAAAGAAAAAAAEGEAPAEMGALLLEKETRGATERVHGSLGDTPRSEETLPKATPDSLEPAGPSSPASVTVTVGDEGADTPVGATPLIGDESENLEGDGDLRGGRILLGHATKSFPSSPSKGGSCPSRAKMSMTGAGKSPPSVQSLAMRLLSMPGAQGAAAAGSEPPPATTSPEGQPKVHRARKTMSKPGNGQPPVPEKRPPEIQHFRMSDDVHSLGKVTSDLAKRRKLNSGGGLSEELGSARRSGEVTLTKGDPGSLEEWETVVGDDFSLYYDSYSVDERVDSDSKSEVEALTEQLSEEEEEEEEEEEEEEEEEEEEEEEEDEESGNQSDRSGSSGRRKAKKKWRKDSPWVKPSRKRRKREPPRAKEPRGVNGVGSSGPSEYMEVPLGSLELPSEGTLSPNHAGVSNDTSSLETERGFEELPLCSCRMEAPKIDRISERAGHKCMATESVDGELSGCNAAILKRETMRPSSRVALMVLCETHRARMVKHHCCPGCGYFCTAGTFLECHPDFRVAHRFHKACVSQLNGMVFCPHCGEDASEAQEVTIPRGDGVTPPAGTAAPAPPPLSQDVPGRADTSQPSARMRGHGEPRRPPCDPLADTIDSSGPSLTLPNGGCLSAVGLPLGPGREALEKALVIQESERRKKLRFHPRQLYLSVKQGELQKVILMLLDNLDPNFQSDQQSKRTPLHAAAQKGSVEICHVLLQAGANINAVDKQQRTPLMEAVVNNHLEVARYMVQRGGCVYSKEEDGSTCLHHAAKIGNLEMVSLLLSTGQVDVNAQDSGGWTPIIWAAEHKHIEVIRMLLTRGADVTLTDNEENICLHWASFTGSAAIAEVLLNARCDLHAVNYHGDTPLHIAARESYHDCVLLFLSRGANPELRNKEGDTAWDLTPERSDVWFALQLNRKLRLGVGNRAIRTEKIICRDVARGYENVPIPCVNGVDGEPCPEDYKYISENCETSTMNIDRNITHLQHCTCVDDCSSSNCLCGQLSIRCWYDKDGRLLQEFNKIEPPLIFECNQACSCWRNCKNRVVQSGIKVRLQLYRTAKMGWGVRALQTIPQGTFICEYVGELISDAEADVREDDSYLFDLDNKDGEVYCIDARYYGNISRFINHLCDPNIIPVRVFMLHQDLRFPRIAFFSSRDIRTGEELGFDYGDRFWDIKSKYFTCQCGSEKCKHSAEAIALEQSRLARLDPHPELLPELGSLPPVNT
# Experiment: qHTS Assay for Inhibitors of Histone Lysine Methyltransferase G9a; also: nearly all actives have a fitted effect of over 75% in size
# Conditions: G9a H3K9 monomethylation, AlphaScreen, 2 h; activity, negative = inhibition: at 59 µM (top of the series) unless noted
# Method in brief: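 Methyltransferase reactions run at room temperature for 2 h (20 nM enzyme, 500 nM biotin-H3K9 peptide, 20 uM SAM) after a 15 min compound preincubation; product detected by AlphaScreen beads and anti-H3K9me1 antibody.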
# % is scaled to controls: 0 for no effect and ±100 for the full control effect; potency is read from the fitted curve at half-maximal effect; tags tell the direction and shape of the fitted curve.
Structure (SMILES),Potency,"activity, negative = inhibition"
Cc1ccc(-n2[nH]c(C)c(C=Nc3ccc(Br)cn3)c2=O)cc1,"inconclusive: 35.5 µM [inhibitor, partial curve, poor fit]",–
CC(C)(C)c1ccc(OCC(=O)NN2Cc3ccccc3C2=N)cc1,active: 50.1 µM,–
COc1ccc(/C=C2/SC(=S)N(NS(=O)(=O)c3ccccc3)C2=O)cc1,"inconclusive: 79.4 µM [inhibitor, single point]",–
O=C(NCCN1CCOCC1)c1cccc(S(=O)(=O)Nc2cc(Cl)ccc2Cl)c1,"inconclusive: 70.8 µM [inhibitor, single point]",–
COc1ccccc1Cc1nc2ccccc2nc1SCC(=O)NCc1ccc(C)cc1,inactive,–
O=C(Nc1ccc(S(=O)(=O)N2CCOCC2)cc1)c1ccc([N+](=O)[O-])cc1Cl,inactive,–
CN(CC(=O)Nc1ccc(Cl)c(C(F)(F)F)c1)C(=O)c1ccc2c(c1)OCCO2,inactive,–
CN1CCN(c2ccc(NC(=S)NC(=O)c3cccc4c(Br)cccc34)cc2)CC1,active: 6.31 µM,–
CSCC(=O)N1CCc2ccc(NC(=O)c3ccccc3Cl)cc2C1,–,inactive: -8.38% [at 0.501 µM]
CC(C)(Cc1cc(CC(C)(C)C(=O)O)cc(C(C)(C)C)c1)C(=O)O,inactive,–
CCOC(=O)c1c(NC(=O)CN2CCCCC2)sc2c1CCCC2O (centres undefined),"inconclusive: 50.1 µM [inhibitor, partial curve, poor fit]",–
CCOC(=O)C1(C(F)(F)F)N=C(C(F)(F)F)Nc2cc(C)c(C)cc21 (centres undefined),"inconclusive: 89.1 µM [inhibitor, single point]",–
COc1cc(CN(CCc2c(C)[nH]c3ccc(C)cc23)C(=S)NC(C)(C)C)cc(OC)c1OC,"inconclusive: 70.8 µM [inhibitor, single point]",–
COC(=O)c1ccc(/C=N/N2CCN(Cc3ccccc3)CC2)cc1,"inconclusive: 44.7 µM [inhibitor, partial curve, poor fit]",–
Fc1ccccc1COc1ccc(Br)cc1CNCc1ccncc1,"inconclusive: 89.1 µM [inhibitor, single point]",–
O=C(O)c1cccc(-c2nc3ccccc3[nH]2)c1,inactive,–
COc1ccc(-c2nc(SCC(=O)NC3CCCC3)c(-c3ccc(F)cc3)[nH]2)cc1OC,"inconclusive: 20 µM [inhibitor, partial curve]",–
O=C(Cn1c(-c2cncs2)nc2ccccc21)NCCc1ccccc1,"inconclusive: 100 µM [inhibitor, single point]",–
COc1ccc(S(N)(=O)=O)cc1C(=O)OCC(=O)N1CC(=O)Nc2ccccc21,"inconclusive: 39.8 µM [inhibitor, partial curve, poor fit]",–
Cc1ccc(-c2ccc(CCC(=O)O)n2NC(N)=S)cc1,"inconclusive: 20 µM [inhibitor, single point]",–
Cc1cc(/C=C(\C#N)C(=O)NCCc2c[nH]c3ccccc23)c(C)n1C,"inconclusive: 35.5 µM [inhibitor, single point]",–
Cc1c(C)n(CC(O)CN2CCOCC2)c2ccccc12 (centres undefined),active: 12.6 µM,–
O=C(CN1CCN(c2ccccn2)CC1)Nc1ccc(Cl)c(C(F)(F)F)c1,"inconclusive: 89.1 µM [inhibitor, partial curve, poor fit]",–

Structure (SMILES),Potency,"activity, negative = inhibition"
COc1cccc(-c2ccc(SCC(=O)NCCc3ccccc3)nn2)c1,inactive,–
COc1cccc(NC(=O)CN(C)C(=O)c2cc3c(s2)CCC(C)C3)c1 (centres undefined),–,inactive: -6.53% [at 12.7 µM]
COc1ccc(NS(=O)(=O)c2ccc(N3CCOCC3)c(NC(=O)C(C)C)c2)cc1,inactive,–
COc1ccc(N(CC(=O)N/N=C/c2ccco2)S(=O)(=O)c2ccccc2)cc1,active: 50.1 µM,–
Cc1cc(Cl)cc(Br)c1OCCCCn1cncn1,"inconclusive: 3.16 µM [inhibitor, single point]",–
CCN(CC(=O)NCc1ccc(Cl)cc1)C(=O)CSc1cc(C)ccc1C,"inconclusive: 89.1 µM [inhibitor, single point]",–
CCCCCCCNC(=O)C1(CC2CC(c3cccc(Br)c3)=NO2)CCN(C(=O)c2cc(OCC)c(OCC)c(OCC)c2)CC1 (centres undefined),–,inactive: -31.9% [at 2.33 µM]
CCc1ccc(-n2c(N3CCN(c4ccc(F)cc4)CC3)nc3ccccc3c2=O)cc1,"inconclusive: 25.1 µM [inhibitor, single point]",–
O=C(c1ccc2c(c1)N(Cc1ccccc1)C(=O)c1ccccc1S2(=O)=O)N1CCOCC1,inactive,–
COc1ccccc1NC(=O)CSc1nnc(COc2ccc(Cl)cc2)n1Cc1ccco1,"inconclusive: 70.8 µM [inhibitor, partial curve, poor fit]",–
Cc1ccc(CC(CC(=O)NCCc2ccc3c(c2)OCO3)C(=O)O)cc1 (centres undefined),inactive,–
c1ccc(-c2n[nH]c3c2oc2ccccc23)cc1,inactive,–
COc1ccc(NC(=O)CSc2nnc(C)c3ccccc23)cc1,active: 50.1 µM,–
O=C(NCc1ccc2c(c1)OCO2)C12CN(Cc3ccccc3)CC1C(c1cccc([N+](=O)[O-])c1)=NO2 (centres undefined),–,inconclusive: -69.5% [inhibitor]
Cc1cc2c(c(=O)o1)C(c1ccc([N+](=O)[O-])o1)C(C#N)=C(N)O2 (centres undefined),"inconclusive: 56.2 µM [inhibitor, partial curve, poor fit]",–
O=C(CN1C(=O)NC(Cc2c[nH]c3ccccc23)C1=O)Nc1ccccc1Br (centres undefined),"inconclusive: 4.47 µM [inhibitor, single point]",–
Cc1ccc(-c2nc3ccccc3c(=O)n2CCCN2CCOCC2)cc1,"inconclusive: 8.91 µM [inhibitor, full curve, poor fit]",–
COc1cc(NC(=O)COC(=O)CNC(=O)c2ccc(Cl)cc2)c(C)cc1[N+](=O)[O-],"inconclusive: 25.1 µM [inhibitor, single point]",–
CC1SC(=NC(=O)C(C)N2C(=O)c3ccccc3C2=O)NC1=O (centres undefined),"inconclusive: 39.8 µM [inhibitor, single point]",–
COc1ccc(/C=C/C(=O)c2ccccc2O)cc1CN1CCOCC1,"inconclusive: 31.6 µM [inhibitor, single point]",–
COc1ccccc1OCC(=O)NCc1ccco1,active: 56.2 µM,–
CC(C)(C)CC(C)(C)NCC(O)COc1c(F)cc(Br)cc1F (centres undefined),"inconclusive: 79.4 µM [inhibitor, single point]",–
Cc1ccc(NC(=O)CSCC(=O)N(C)CC(=O)Nc2ccccc2C(F)(F)F)cc1,active: 50.1 µM,–

Structure (SMILES),Potency,"activity, negative = inhibition"
O=C(Nc1cccc(Br)c1)c1cc(S(=O)(=O)N2CCCCC2)c[nH]1,inactive,–
Cc1csc2nc(COc3ccc(NC(=O)c4ccccc4F)cc3)cc(=O)n12,"inconclusive: 11.2 µM [inhibitor, partial curve, poor fit]",–
O=C(CCOc1ccccc1F)N1CCN(c2ccccc2O)CC1,inactive,–
OC(COCC1CC=CCC1)Cn1cnc2ccccc21 (centres undefined),"inconclusive: 89.1 µM [inhibitor, single point]",–
COCCn1c(C)nnc1SCC(=O)Nc1ccccc1[N+](=O)[O-],"inconclusive: 79.4 µM [inhibitor, partial curve]",–
CCNCC(=O)Nc1ccc(N2CCOCC2)cc1,"inconclusive: 39.8 µM [inhibitor, partial curve, poor fit]",–
CC(=O)N1CCN(S(=O)(=O)c2cccc(C(=O)NNC(=O)COc3ccc(Cl)cc3C)c2)CC1,"inconclusive: 89.1 µM [inhibitor, partial curve, poor fit]",–
COc1ccccc1CNc1nccn(-c2ccc(F)cc2)c1=O,"inconclusive: 35.5 µM [inhibitor, partial curve, poor fit]",–
O=C(NCCC(=O)N1CCN(c2ccccc2O)CC1)c1ccc(Cl)cc1,active: 50.1 µM,–
CCCOc1ccc(N2C(=O)CC(N(CCc3ccc(OC)cc3)C(=O)c3cccc(F)c3)C2=O)cc1 (centres undefined),active: 44.7 µM,–
COc1ccc(-c2[nH]c(-c3ccc(C)cc3)nc2SCC(=O)Nc2nccs2)cc1,active: 44.7 µM,–
CCCNC(=O)c1ccc(Cn2c(SCC(=O)NC(C)C)nc3ccccc3c2=O)cc1,inactive,–
CCN1CCCC1CNC(=O)c1cn(CC)c2ccc(S(=O)(=O)N3CCCCCC3)cc2c1=O (centres undefined),–,inconclusive: -68.1% [inhibitor]
Cc1cc(C)n2ncc(/C(N)=N/OC(=O)c3ccccc3F)c2n1,"inconclusive: 79.4 µM [inhibitor, partial curve, poor fit]",–
CCCCC(=O)Nc1ccc(NC(=S)NC(=O)CCCCl)cc1OC,"inconclusive: 28.2 µM [inhibitor, single point]",–
Cc1cc(C)c2c(=O)[nH]c(SCC(=O)Nc3cccc(S(=O)(=O)N(C)C)c3)nc2n1,–,inactive: 19.4% [at 2.33 µM]
CN1CCN(NC(=O)c2ccc(COc3ccccc3Br)o2)CC1,inactive,–
COc1ccc(OC)c(N/C=C/C(=C(C#N)C#N)N(C)C)c1,"inconclusive: 79.4 µM [inhibitor, single point]",–
COc1ccc(N(Cc2cc3cc(OC)ccc3[nH]c2=O)S(C)(=O)=O)cc1,–,inconclusive: -87.2% [inhibitor]
COc1ccc(/C(O)=C2/C(=O)C(=O)N(CC3CCCO3)C2c2ccc(O)c(OC)c2)cc1 (centres undefined),active: 50.1 µM,–
CCC(C)(C)NC(=O)CCCSc1nc2ccccc2[nH]1,–,inactive: 0.384% [at 12.7 µM]
O=C(NCCc1ccccc1)c1ccc2nc3cc(Cl)ccc3c(=O)n2c1,inactive,–
O=C1Nc2cc(C(=O)N3CCN(c4ccc(F)cc4)CC3)ccc2NC1CSCc1cccc(F)c1 (centres undefined),active: 10 µM,–

# From PubChem BioAssay AID504332 (National Center for Advancing Translational Sciences (NCATS), 2011)
